# Data published in the supplement of paper PMC10126150.
# Values marked as one replicate rest on one cluster of the flow cell; about a third of the high ones do not repeat.
# System: ATP
# Assay: switch fluorescence ratio, 500 uM ATP over buffer (Cy3 cluster intensity, sum of 5 cycles each) (fold (ratio)); higher = stronger signal-on switching upon ATP binding; sequences stand for … in TCGTCGGCAGCGTCAGATGTGTATAAGAGACAGTTTTTTTTTTTTTTTTTTTTTTTTT…TC
# Conditions: aptamer strand: ATP DNA aptamer (quencher-CACCTGGGGGAGTATTGCGGAGGAAGG + anchor), 100 nM annealed; ATP concentration: 500 uM; one replicate
# In short: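 After annealing to 100 nM quencher-labelled ATP aptamer, Cy3-labelled switching-strand clusters on a modified Illumina MiSeq flow-cell were imaged in selection buffer. A second image followed after 15 min with 500 uM ATP at 22 °C, and five such buffer/ATP cycles were done, each separated by NaOH stripping and re-annealing. The fluorescence ratio, averaged per switch-domain sequence, is summed target-cycle over summed buffer-cycle Cy3 intensity per cluster, with clusters outside 100-1000 RFU excluded.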
# 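Note: ATP exposure 15 min at 22 °C before imaging.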
row,Sequence,switch fluorescence ratio
1,AGAAGGAGGG,0.989
2,TGGTACACTT,0.985
3,ACCTGCTGTA,0.994
4,TGGGTACGCG,0.989
5,CTAGGCGAGG,0.994
6,ACTTCACAGG,1.86
7,AGATTTTGGA,0.979
8,TGCCGGTGAG,0.963
9,GGTGATCGG,0.995
10,TAGGCTTAA,0.972
11,TGACCTTTTT,0.988
12,GTGTTTTGAT,1.02
13,TCACTTCATT,1.02
14,ATACTCGGTC,1.09
15,CTTTCCAGTA,1.03
16,CACGAGAGGT,1.02
17,CATTTGAATG,0.95
18,ATCATAGGTA,1.01
19,TTGCAGCTCT,1.07
20,TTATTCATAT,0.991
21,GAGCGCGAAT,0.956
22,ATCATCGACT,0.974
23,CGAACTGATA,1.04
24,GGGTGACGCA,1.02
25,TTTTCATCTT,1.01

row,Sequence,switch fluorescence ratio
1,GGTAGACTCG,1.01
2,TTTGGTGTCA,0.959
3,ACAGGTAGTA,1.07
4,CTTTACGTTC,1.04
5,GGGCTATAGG,1.05
6,CAAGGCACCG,1.04
7,TTTACGCATC,2.49
8,GAAATTTATT,1.06
9,TTTAATGTGA,1.01
10,AACGATCTGG,1
11,ATTTGAGCAT,1.01
12,TGCACAAGCG,0.982
13,GAAACTCTAT,1.01
14,ACGGAGCTGT,2.61
15,GCAGATAGTC,1.16
16,CGATTGTAT,1.03
17,CAAGTCGGGT,0.961
18,GTTGTGCGCG,0.984
19,CTTCTCACAT,1.01
20,AATTGGGTG,0.943
21,ATTAGCGGTT,0.996
22,TTGTCCAAGA,1.03
23,CCACTACGGG,1.07
24,TACCCCTTGC,1.08
25,TAAATACTAG,0.998

row,Sequence,switch fluorescence ratio
1,GGTGGACTAC,1.02
2,CGTTATGATA,1.02
3,TATGTAGGCA,0.978
4,TTTTGCGGT,0.982
5,TATAGTGGAA,0.997
6,CCTAACGCCC,2.73
7,CACCCGGGTT,1.08
8,TAATCTGCCA,1.23
9,GGAACACGGG,1
10,GTCGGAGGTA,1.04
11,GTTACCCCCG,1.35
12,TGTCTGAAAG,1.01
13,TTTAGGAGTC,1
14,CTGGGTAGTG,0.974
15,CCATGGGGTA,0.995
16,GTAAAAGCGT,0.974
17,GAGGTAAGAC,2.1
18,CCATATCGCA,1.91
19,AGGCGGGAGA,1.03
20,ATGCCGGATG,1.01
21,GCAGTAGAAT,0.965
22,AGCGAGGTGA,1.03
23,GGATGGGTCA,1.02
24,TCCTGCAAA,1.95
25,CTCTCCTGGG,1.38

row,Sequence,switch fluorescence ratio
1,TGCCACTAAG,1
2,TGGGATACTC,1.21
3,CGGAGGTTGG,0.959
4,CATCAACGG,1.03
5,GGGGGCGAAA,1.01
6,TCACTTAGGC,1.15
7,AGCATTCGGC,1.01
8,ATAATAGGAG,1.01
9,ACTGAGTCTG,1.22
10,TAAAGCGGGT,1.02
11,GTATATGGGG,0.936
12,AGACACTGTA,1.2
13,CCCGTTGGTA,0.995
14,GCGGCAGGTT,0.976
15,TCTTGGAAAC,0.987
16,GCCATAGC,1.03
17,AGTCCGGTTG,1.06
18,ACTATAGGTC,1.05
19,AATGCCCCTT,1.01
20,TTTCGAAGTG,0.988
21,AACAGGGATC,1.03
22,GGTAATAGTG,1.01
23,GGTTATTCAG,0.978
24,AACAGATTAG,1.07
25,GGCGCTTATG,1.03

row,Sequence,switch fluorescence ratio
1,GTAGTATACA,0.992
2,AAAGTCGATC,0.978
3,AAAAAAAGTT,0.985
4,CTCTAGGAGG,0.962
5,TGCTTTACCG,0.999
6,ACGTGGTTGG,1.04
7,TACAGGGAC,1.02
8,TGGCAGCATG,0.95
9,ATCAACCAAT,1.05
10,CTCCGAAGTT,2.07
11,GAAATTTTAG,0.993
12,GCCCTGGTTT,1.05
13,TGGGCGCGTT,1.02
14,CCCATGGCTA,0.998
15,TTGCAGGAGA,1.01
16,TGATTATCCT,1.05
17,CCTTCTTAGG,1.02
18,ACAGGACCAT,1.12
19,AAGGGGTTGT,0.996
20,TATCAAGAAA,1.02
21,AAGTACATC,1.28
22,AGGTGTAGCT,0.96
23,CTCATTTTTC,0.94
24,TTCTATCGTC,1
25,CGAACTTTAT,1.02

row,Sequence,switch fluorescence ratio
1,GTAATGCTAA,0.981
2,CCTTGACCAG,1.01
3,CCAAATGTAG,0.989
4,TGGTGTGAC,1.05
5,CGGAATTAGG,1.04
6,GTAATCATGA,0.985
7,TAGCGGGCG,0.987
8,GGTTAAGAGC,0.972
9,TGCCGGTGTC,1.02
10,CAGTGTGCTA,1.04
11,CCCCTGGCCT,1.09
12,GGCCATGTAA,0.972
13,TACAAAACTT,0.981
14,TATAGGCTTA,0.961
15,GTGTCTCTTG,1
16,ACAATGCGTT,1.15
17,CATCACTTT,1.06
18,CGCGGATTGC,1.24
19,AACTTGCGGG,0.963
20,TCCAGCCGGG,1.06
21,TGCCGTGGTG,1.08
22,CGTGTCTAAA,1.01
23,AGGCAATGAC,1.86
24,TGGCGTGTGG,1.04
25,GCACATGGTA,1.01

row,Sequence,switch fluorescence ratio
1,TAACCTCCGT,1.21
2,AGCCAGTTAG,0.981
3,TCCGATGTAT,1.07
4,CCATATATGG,0.994
5,ATGGCCAGCG,1.01
6,TGCGTAACGC,0.975
7,AGTTTGGGAC,0.979
8,GTAACGCCTC,0.999
9,ATTTTATAC,1.15
10,AGGTTGGCGA,1.02
11,ACCCTGTCTG,1.02
12,CCATAGAGCG,0.995
13,TTAATATTTC,0.989
14,GTATAGGAGG,0.979
15,CACTTAGTTC,1.04
16,GTGTGATTAG,0.976
17,TCAGGGCAAA,1.02
18,CTATTGGCAG,0.978
19,AACCCGGCTC,1.06
20,AAAGACTAAG,0.96
21,GCGCGCGTAC,1.21
22,TTATGTGGAA,1
23,CAGAGAGGGC,1.02
24,CCTGACCGGT,1.02
25,GAAATGTGGG,0.983

row,Sequence,switch fluorescence ratio
1,TAAAGAACCC,1.01
2,TACGCACAGG,1.57
3,TTCGAATCAT,1.01
4,CACGATCCAT,0.986
5,GCAGTCCTCG,1.02
6,AGGTGGCCTA,0.971
7,TAATTATGGC,0.972
8,TCCGATCTTG,1.18
9,TCACAGTTTG,1.02
10,AGTCGGGGG,0.999
11,GTATTTGACA,1.13
12,AAATCTAACG,1.02
13,ACTGAAGTCA,1
14,ATGAGTATAG,0.992
15,AGGAAACCTA,1.09
16,ATACACCATC,1.02
17,AAAAAACGGA,0.957
18,TTTAGTACAC,1.04
19,TGTCCTTCTT,1.03
20,GAAAACCCTG,0.921
21,AGTAGTGAGA,1.01
22,TGGGTTTAGT,0.959
23,AGACGGAAAA,0.977
24,CACACGGGCG,1.14
25,TAGGAAACCG,1.02
